The supplement of paper PMC4967469

Columns and labels:
Assay in all cases: Viability of human cancer cell lines after 72 h of drug (GDSC screen)
[1] = compound: CCN(CC)CCNC(=O)c1c(C)[nH]c(/C=C2\C(=O)Nc3ccc(F)cc32)c1C [Sunitinib]; settings: top dose 8 µM
Method: (§1)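 Human cancer cell lines in 384-well plates, medium with 10% serum, drug for 72 h over a 256-fold dose range (nine 2-fold or five 4-fold steps up to the top dose). Adherent lines were fixed and stained with the nucleic acid dye Syto60, suspension lines read with resazurin; signal relative to control wells, capped at 0 and 100%. One two-parameter sigmoid per drug and line, fitted in a mixed model over all curves with the slope shared within a line.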

[2] = compound: Cc1ccc(Nc2nccc(N(C)c3ccc4c(C)n(C)nc4c3)n2)cc1S(N)(=O)=O [Pazopanib]; settings: top dose 8 µM
Method: as §1

[3] = compound: Cn1cc(C2=C(c3ccc(Cl)cc3Cl)C(=O)NC2=O)c2ccccc21 [SB 216763]; settings: top dose 10 µM; top dose inferred
Method: as §1

[4] = compound: C[C@]12O[C@H](C[C@]1(O)CO)n1c3ccccc3c3c4c(c5c6ccccc6n2c5c31)CNC4=O [CEP-701]; settings: top dose 2 µM; top dose inferred
Method: as §1

[5] = compound: CC(C)[C@H](C(=O)Nc1ccc(C(=O)NO)cc1)c1ccccc1 [AR-42]; settings: top dose 5.12 µM; top dose inferred
Method: as §1

[6] = compound: CC(C)C[C@@H](C=O)NC(=O)[C@H](CC(C)C)NC(=O)[C@H](CC(C)C)NC(=O)OCc1ccccc1 [MG-132]; settings: top dose 1 µM
Method: as §1

[7] = compound: CS(=O)(=O)N1CCN(Cc2cc3nc(-c4cccc5[nH]ncc45)nc(N4CCOCC4)c3s2)CC1 [GDC0941]; settings: top dose 4 µM; screen: GDSC drug entry 1527; top dose inferred
Method: as §1

Row | Cell Line | AUC [1] | IC50 [1] [µM] | AUC [2] | IC50 [2] [µM] | AUC [3] | IC50 [3] [µM] | AUC [4] | IC50 [4] [µM] | AUC [5] | IC50 [5] [µM] | AUC [6] | IC50 [6] [µM] | AUC [7] | IC50 [7] [µM]
1 | BB49-HNC (head and neck, adherent) | 0.75 | 3.6 | 0.949 | > 8 | 0.913 | > 10 | 0.785 | 1.26 | 0.897 | > 5.12 | 0.766 | 0.524 | 0.463 | 0.19
2 | WSU-NHL (lymphoid neoplasm, suspension) | 0.982 | > 8 | 0.985 | > 8 | 0.98 | > 10 | 0.342 | 0.0483 | 0.507 | 0.333 | 0.989 | > 1 | 0.384 | 0.125
3 | NCI-H1836 (small cell lung carcinoma, suspension) | 0.942 | > 8 | 0.988 | > 8 | 0.988 | > 10 | 0.913 | > 2 | 0.619 | 0.706 | 0.899 | > 1 | 0.85 | 3.5
4 | NB-4 (acute myeloid leukaemia, suspension) | 0.746 | 2.15 | 0.963 | > 8 | 0.991 | > 10 | 0.359 | 0.055 | 0.209 | 0.0554 | 0.773 | 0.32 | 0.675 | 0.694
5 | KARPAS-422 (B-cell lymphoma, suspension) | 0.829 | 4.86 | 0.973 | > 8 | 0.986 | > 10 | 0.713 | 0.494 | 0.524 | 0.372 | 0.731 | 0.282 | 0.891 | > 4
6 | PSN1 (pancreas, adherent) | 0.707 | 1.71 | 0.908 | > 8 | 0.945 | > 10 | 0.619 | 0.252 | 0.317 | 0.108 | 0.685 | 0.187 | 0.923 | > 4
7 | L-1236 (Hodgkin lymphoma, suspension) | 0.817 | 3.6 | 0.979 | > 8 | 0.989 | > 10 | 0.372 | 0.059 | 0.38 | 0.158 | 0.742 | 0.268 | 0.795 | 1.54
8 | GR-ST (lymphoblastic leukaemia, suspension) | 0.89 | > 8 | 0.945 | > 8 | 0.971 | > 10 | 0.696 | 0.504 | 0.408 | 0.17 | 0.949 | > 1 | 0.487 | 0.229
9 | KU812 (chronic myeloid leukaemia, suspension) | 0.819 | 4.05 | 0.819 | 4.06 | 0.988 | > 10 | 0.611 | 0.244 | 0.101 | < 0.02 | 0.764 | 0.333 | 0.951 | > 4
10 | SK-PN-DW (Ewing sarcoma, adherent) | 0.879 | > 8 | 0.981 | > 8 | 0.983 | > 10 | 0.542 | 0.164 | 0.391 | 0.159 | 0.726 | 0.283 | 0.701 | 0.944
11 | OCI-AML3 (acute myeloid leukaemia, suspension) | 0.906 | > 8 | 0.981 | > 8 | 0.99 | > 10 | 0.658 | 0.32 | 0.331 | 0.117 | 0.792 | 0.382 | 0.71 | 0.884
12 | LS-1034 (large intestine, adherent) | 0.967 | > 8 | 0.985 | > 8 | 0.964 | > 10 | 0.984 | > 2 | 0.551 | 0.447 | 0.928 | > 1 | 0.812 | 2.43
13 | UACC-257 (melanoma, adherent) | 0.848 | > 8 | 0.93 | > 8 | 0.938 | > 10 | 0.771 | 0.961 | 0.509 | 0.34 | 0.574 | 0.105 | 0.892 | > 4
14 | TE-12 (oesophagus, suspension) | 0.577 | 0.849 | 0.873 | > 8 | 0.976 | > 10 | 0.79 | 1.11 | 0.982 | > 5.12 | 0.86 | > 1 | 0.656 | 0.748
15 | COR-L279 (small cell lung carcinoma, suspension) | 0.911 | > 8 | 0.958 | > 8 | 0.991 | > 10 | 0.808 | 0.902 | 0.297 | 0.0925 | 0.88 | 0.842 | 0.84 | 2.33
16 | SF268 (glioma, adherent) | 0.786 | 3.73 | 0.885 | > 8 | 0.985 | > 10 | 0.632 | 0.298 | 0.474 | 0.271 | 0.787 | 0.471 | 0.855 | 3.57
17 | HCC2218 (breast, suspension) | 0.98 | > 8 | 0.879 | > 8 | 0.964 | > 10 | 0.963 | > 2 | 0.665 | 1.05 | 0.951 | > 1 | 0.769 | 1.89
18 | SUP-T1 (T-cell lymphoblastic leukaemia, suspension) | 0.98 | > 8 | 0.942 | > 8 | 0.964 | > 10 | 0.873 | 1.63 | 0.339 | 0.119 | 0.99 | > 1 | 0.933 | > 4

A lower IC50 marks a more sensitive line; fits outside the tested doses are given as limits. AUC, from the same fit, is the share of area under the viability curve across the 256-fold dose range; it is 1 without any effect and falls as sensitivity rises. For part of these data: Any top dose called inferred comes from the curve model; the source does not state it. For part of these data: Where an entry number is given, a second screen of the drug exists; the two often differ.
